According to publication PMC4336329 (PLoS ONE, 2015):
In all, about 310,000 compounds went through this assay and about 14,000 (4.5%) showed an effect of 50% or more. The effect is printed as a negative number. Some of the results follow.

The compounds below were run against human ether-à-go-go-related gene (hERG) potassium channel (human, UniProt Q12809) (assay: primary screen, population patch clamp on CHO cells stably expressing hERG).
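Also: peak tail current of the secondary pulse compared with the same well before compound.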

Chain of human ether-à-go-go-related gene (hERG) potassium channel (Q12809 whole entry, looked up): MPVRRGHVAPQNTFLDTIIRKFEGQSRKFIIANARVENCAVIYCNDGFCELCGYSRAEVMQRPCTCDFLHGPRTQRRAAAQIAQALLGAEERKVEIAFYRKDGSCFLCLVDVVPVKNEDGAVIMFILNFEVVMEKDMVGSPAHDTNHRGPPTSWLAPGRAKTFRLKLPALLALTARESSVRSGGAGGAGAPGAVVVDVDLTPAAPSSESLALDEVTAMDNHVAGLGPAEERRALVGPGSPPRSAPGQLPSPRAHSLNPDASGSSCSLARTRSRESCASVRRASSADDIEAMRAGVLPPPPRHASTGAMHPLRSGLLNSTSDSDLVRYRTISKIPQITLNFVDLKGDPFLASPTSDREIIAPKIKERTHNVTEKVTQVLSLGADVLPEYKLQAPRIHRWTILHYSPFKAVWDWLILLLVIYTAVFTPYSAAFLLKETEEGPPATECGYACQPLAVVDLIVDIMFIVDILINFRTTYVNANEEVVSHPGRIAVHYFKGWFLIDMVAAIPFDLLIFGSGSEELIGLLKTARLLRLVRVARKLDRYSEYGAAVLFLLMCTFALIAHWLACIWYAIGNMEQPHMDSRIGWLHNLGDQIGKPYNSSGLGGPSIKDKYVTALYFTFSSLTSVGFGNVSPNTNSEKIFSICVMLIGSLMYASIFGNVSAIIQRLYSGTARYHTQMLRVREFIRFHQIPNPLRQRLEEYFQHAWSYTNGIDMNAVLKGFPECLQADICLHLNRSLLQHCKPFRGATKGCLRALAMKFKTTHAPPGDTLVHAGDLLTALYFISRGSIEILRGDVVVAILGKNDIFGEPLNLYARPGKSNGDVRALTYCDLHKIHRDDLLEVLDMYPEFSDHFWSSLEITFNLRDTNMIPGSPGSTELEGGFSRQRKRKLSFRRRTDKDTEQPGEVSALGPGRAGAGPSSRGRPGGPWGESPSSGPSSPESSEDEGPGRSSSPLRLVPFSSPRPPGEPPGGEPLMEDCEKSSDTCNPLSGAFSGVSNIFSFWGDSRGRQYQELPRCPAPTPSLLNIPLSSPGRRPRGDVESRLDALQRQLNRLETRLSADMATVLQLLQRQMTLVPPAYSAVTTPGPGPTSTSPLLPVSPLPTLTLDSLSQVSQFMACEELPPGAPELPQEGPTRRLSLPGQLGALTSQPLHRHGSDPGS

| SMILES | hERG current change (%, negative = inhibition) at 10uM [%] |
| --- | --- |
| COc1ccc(C(=O)Nc2cccc(/C=C/c3nc4ccccc4c(=O)[nH]3)c2)cc1 | -28.2 |
| O=C(NC1CCCC1)C1CCC(=O)N1C1CCCC1 (centres unmarked) | 11.9 |
| CC(C)CC(NC(N)=O)C(=O)Nc1ccc2c(c1)OCO2 (centres unmarked) | 25 |
| CSc1nc(Nc2ccc(Cl)cc2)c(C#N)c(=O)[nH]1 | 18.3 |
| COc1ccc(S(N)(=O)=O)cc1C(=O)OCCCOc1ccc(F)cc1 | -37.7 |
| Cc1ccc2c(c1)C1(C)C(C(C)(C)N2C=O)C1(Cl)Cl (centres unmarked) | 6.91 |
| CCCCC(c1nnnn1C1CCCC1)N1CCN(C2CCCCC2)CC1 (centres unmarked) | -69.8 |
| CCn1nc(NC(=O)c2cccnc2)c2cc3cccc(C)c3nc21 | 2.93 |
| Cn1cccc1-c1cc(C(=O)N/N=C/c2ccc([N+](=O)[O-])cc2)[nH]n1 | -24.2 |
| CCCCC(=O)Nc1ccccc1C(=O)OCC(=O)c1ccc2c(c1)OCCO2 | -3.68 |
| Nc1nc2c(s1)C(=O)CC(c1ccccc1)C2 (centres unmarked) | 15.2 |
| Cc1cc(C(=O)N/N=C/c2cccnc2)n[nH]1 | 11 |
| O=C(NCCCNC(=O)c1c(Cl)cccc1Cl)c1c(Cl)cccc1Cl | 17.8 |
| Cc1ccc(CNC(=O)c2ccc(Br)o2)cc1 | -18 |
| Cc1nnsc1C(=O)NNc1ccc(Cl)cc1 | -0.343 |
| Cc1ccc2c(NC(=O)C3CC3)cccc2n1 | 0.836 |
| COc1ccc(NC(=S)N2CCN(S(=O)(=O)c3ccc(F)cc3)CC2)cc1OC | 8.04 |
| CCOC(=O)N1CCC(n2c(SCC(=O)NCc3ccco3)nc3ccsc3c2=O)CC1 | -45.1 |
| CC1=CC2=NC(=O)/C(=C\c3cc(C)n(-c4ccccc4)c3C)C(=N)N2O1 | 12.8 |
| CC1CCN(CCCNC(=O)CCc2nnc3n(CCc4ccccc4)c(=O)c4ccccc4n23)CC1 | -76.8 |
| O=C(NCCc1ccccc1)C1CCN(C(=O)c2ccc(F)cc2)CC1 | -2.25 |
| NC(=O)c1ccccc1OCC(=O)N1CCC(Cc2ccccc2)CC1 | -21.3 |
| COc1ccccc1C(=O)Nc1nnc(S(=O)(=O)N2CCN(c3ccc(F)cc3)CC2)s1 | 18.5 |

| SMILES | hERG current change (%, negative = inhibition) at 10uM [%] |
| --- | --- |
| COc1ccc(-c2nn(CCC#N)cc2C(=O)Nc2ccccn2)cc1OC | 10.1 |
| Cn1c(-[n+]2c(-c3ccccc3)cc(-c3ccccc3)cc2-c2ccccc2)nc2cc([N+](=O)[O-])ccc21.[I-] | -12.2 |
| COc1ccc(NC(=O)c2cc3ccccc3o2)cn1 | 8.25 |
| CC(=O)c1nn(-c2ccccc2)cc1C(=O)c1ccc(C)cc1 | 3.72 |
| COc1cc(NC(=O)c2ccnn2C)c(OC)cc1Cl | 4 |
| CSc1nc(-c2ccccc2)nc(SC)c1C(C)=O | 18.5 |
| CCN(CC)CCNC(=O)c1cc([N+](=O)[O-])c(N(C)C)cc1OC.Cl | -12 |
| CC(=O)Nc1ccc(S(=O)(=O)N2CCOCC2)cc1 | 7.69 |
| CC(NS(=O)(=O)c1ccc(NC(=O)N2CCCCC2)cc1)c1ccccc1 (centres unmarked) | 3.56 |
| COC(=O)c1ccc(/C=N/NC(=O)C2CC(=O)N(c3ccc(OC)cc3)C2)cc1 (centres unmarked) | -16.2 |
| COc1ccccc1/C(C)=N/NC(=S)NCc1ccccc1 | -7.92 |
| O=C(c1ccccc1)N1CCC2(CC1)OCCO2 | 9.77 |
| Cn1c(N)c(C(=O)COC(=O)c2cc(-c3ccccc3)nc3ccccc23)c(=O)n(C)c1=O | 7.78 |
| C=C[C@@H](C)N(Cc1ccc(OC)cc1)S(=O)(=O)N(Cc1ccccc1)[C@H](C=C)C(C)C | 3.31 |
| CC(C)c1ccc(NC2CCCN(C(=O)CN3C(=O)CSC3=O)C2)cc1 (centres unmarked) | 19.8 |
| COc1cc2c(cc1OC)CN(C(=O)c1cc(S(=O)(=O)N3CCCCC3)ccc1Cl)CC2 | -20.1 |
| N#CCSc1nc2cc(C(=O)N3CCCC3)ccc2c(=O)n1Cc1ccccc1 | -14.7 |
| CCCc1cc(=O)oc2c(CN3CCCC3)c(O)c(Cl)cc12 | -28 |
| CC1CCCN(C(=S)Nc2ccc(F)cc2)C1 (centres unmarked) | 8.36 |
| CC(C)NC[C@H](O)COc1cccc2[nH]ccc12 | 8.94 |
| CC(C)Oc1ccc(CCC(=O)NNC(=O)c2ccccc2C(=O)O)cc1 | 25.4 |
| COC(=O)c1ccc(C2/C(=C(/O)c3ccc(OC)cc3)C(=O)C(=O)N2Cc2ccco2)cc1 (centres unmarked) | 4.85 |
| Cc1nc2sc3c(c2c(=O)o1)CC(C)(C)OC3 | 22.4 |

| SMILES | hERG current change (%, negative = inhibition) at 10uM [%] |
| --- | --- |
| O=C(NCc1ccco1)C1CC(c2cc(C(F)(F)F)cc(C(F)(F)F)c2)=NO1 (centres unmarked) | 3.12 |
| CCN(CC)CCNc1nc2c(c(=O)n(C)c(=O)n2C)n1C/C=C(/C)Cl | -58.9 |
| Cc1cc(C)n(C(=O)CCNC(=O)c2ccccc2Br)n1 | 12 |
| Cc1occc1C(=O)N/N=C/c1ccc(OCc2ccccc2)cc1 | 10.3 |
| CC(NC(=O)c1ccc(N(C)C)cc1)c1ccc(F)cc1 (centres unmarked) | -2.12 |
| NC(=O)C1=C[C@H](c2ccc(Br)cc2)C[C@H](OCc2ccc(CO)cc2)O1 | -20.6 |
| Cl.c1ccc(-c2nc(NCc3cccnc3)c3oc4ccccc4c3n2)cc1 | -0.432 |
| COc1ccc(CCn2nnnc2C(CC(C)C)N2CCC(C(N)=O)CC2)cc1OC (centres unmarked) | -9.9 |
| Nc1ccccc1S(=O)(=O)NC1=NCCCCC1 | 14.8 |
| COc1ccc(C(c2nnnn2Cc2cccs2)N2CCN(c3ccccc3F)CC2)cc1 (centres unmarked) | 4.04 |
| C/C(CC(=O)Nc1cc(Cl)ccc1Cl)=N\NC(=O)COc1cccc(C)c1 | 10.7 |
| O=C(O)c1cnn(-c2ccccc2)c1-c1ccccc1 | 11.6 |
| CCC(C)C(=O)Nc1ncc2c(n1)CC(c1cccs1)CC2=O (centres unmarked) | -32.5 |
| COc1ccc(C(=O)NCc2ccc(Cl)c(Cl)c2)cc1OC | -25.4 |
| CCOC(=O)c1[nH]cnc1C(=O)Nc1ccc([N+](=O)[O-])cc1 | 4.57 |
| CCC1CCCCN1CC(=O)Nc1cc(C)nn1-c1nc(C)cc(C)n1 (centres unmarked) | -58.8 |
| CC1CCC(NC(=O)CN2C(=O)NC3(CCCCC3C)C2=O)CC1 (centres unmarked) | 4.52 |
| Cc1cc(C(F)(F)F)cc(NNC(=O)NC(=O)c2ccccc2Cl)n1 | 11.1 |
| Cc1ccc(S(=O)(=O)N2CCOCC2)cc1NC(=O)COC(=O)CSc1ccc(Br)cc1C | -21.5 |
| CC(C)c1nnc(SCC(=O)N2CCc3ccccc32)n1C | -2.76 |
| CS(=O)(=O)n1nc(OC(=O)c2cc(Br)ccc2Cl)cc1N | 14.1 |
| COCC(=O)Nc1ccccc1C(=O)Nc1ccc(OC)cc1 | -7.96 |
| CCc1ccc(NC(=O)NC(C)c2ccc3c(c2)OCO3)cc1 (centres unmarked) | -2.27 |

| SMILES | hERG current change (%, negative = inhibition) at 10uM [%] |
| --- | --- |
| CCOc1ccc(OCCC(=O)OCC(=O)NC2CCCC2)cc1 | 17.9 |
| CC(C)(C)[C@H]1C=C(C(=O)N2CCOCC2)O[C@@H](OCCCCO)C1 | 15.8 |
| Cc1cc(=O)[nH]c(/N=C(\N)Nc2ccc3c(c2)OCCO3)n1 | 7.98 |
| CC(=O)NC12CC3CC(C1)CC(C(=O)OCC(=O)NC(=O)c1cccn1C)(C3)C2 | -3.61 |
| COc1ccc(/C=C/C(=O)NCCN=C2NS(=O)(=O)c3ccccc32)cc1 | -9.83 |
| Cc1c(N=C2N=C(NC(=O)Nc3ccc(Cl)cc3)c3ccccc32)c(=O)n(-c2ccccc2)n1C | 13.2 |
| Cc1ccc(S(=O)(=O)NCc2ccco2)cc1C(N)=O | 21.4 |
| CCn1ccnc1CN1CCCC(C(=O)c2cccc(C(F)(F)F)c2)C1 (centres unmarked) | -31.1 |
| Cc1cc(=O)oc2c(CN3CCCC3)c(O)c(Cl)cc12 | 5.35 |
| COc1ccc(OCC(=O)NCC(c2ccc(OC)cc2)N2CCCCC2)cc1 (centres unmarked) | -33.1 |
| Cc1cc(N2C(=O)C(=O)/C(=C(/O)c3ccc(F)cc3)C2c2cccc(Br)c2)no1 (centres unmarked) | 2.87 |
| COCCNC(=O)CNC(=S)N(Cc1ccccc1)Cc1cccnc1 | -0.88 |
| CCC(=O)Nc1cc(OC)cc(OC)c1 | 17.2 |
| Cc1nc(OCc2c(C)noc2C)c2ccccc2n1 | 8.9 |
| COc1ccc(S(=O)(=O)N2CCCCCC2)cc1C(=O)N1CCCCC1 | -0.195 |
| O=C(Nc1cccnc1)c1ccc2snnc2c1 | 0.558 |
| Cc1ccc(-n2c(O)c(/C=N/N3CCCCCC3)c(=O)[nH]c2=O)cc1C | -0.773 |
| O=C1C=C(NCc2ccco2)C2(CCCCC2)O1 | -3.65 |
| COc1ccc(/C=C(\NC(=O)c2cccs2)C(=O)NC(C)(C)C)cc1OC | 14.8 |
| O=C(Nc1cccc(-c2nc3ncccc3o2)c1)c1sc2cc(Cl)ccc2c1Cl | -5.83 |
